According to the supplement of paper PMC3334620:
In all, about 33,000 sequences were measured (“E-score (-0.5 to 0.5)”: median about -0.04, highest 2% from about 0.36 on). The list shows a part of the results.

Each sequence was assayed against T1, Hmlalpha2 (UniProt P0CY09) (assay: PBM E-score (8-mer binding enrichment) (E-score (-0.5 to 0.5)); higher = stronger / more preferred TF binding; most listed sequences are background and not binding sites). Conditions: protein concentration: 200 nM; construct: GST-full length.
T1 sequence: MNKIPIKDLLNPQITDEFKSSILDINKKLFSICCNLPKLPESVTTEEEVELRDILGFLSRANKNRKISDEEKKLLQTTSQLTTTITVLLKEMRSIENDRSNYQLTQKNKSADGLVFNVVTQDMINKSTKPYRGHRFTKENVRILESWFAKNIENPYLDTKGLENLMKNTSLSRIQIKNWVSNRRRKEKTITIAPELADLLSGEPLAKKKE
Procedure, shortened: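 Yeast transcription factors, full-length or as DNA-binding domains, were expressed with a GST tag using PURExpress in vitro transcription/translation. At about 100-200 nM they were applied to universal all-10-mer Agilent arrays, double-stranded by primer extension on fresh or once-stripped slides. Fluorescent anti-GST detected bound protein, and masliner normalised the scans. E-scores for ungapped eight-base words, pooled with reverse complements, came from the Universal PBM Analysis Suite.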

Row | Sequence | PBM E-score
1 | AAGGTTGC | -0.187
2 | AGAGGCCT | -0.263
3 | GTGCCAGA | -0.241
4 | GCAGCAAA | -0.162
5 | GATCCTCC | -0.301
6 | ACTCTAAT | -0.0809
7 | ACTCCAAC | 0.0145
8 | CACGTGTC | 0.25
9 | GGGCCCAA | -0.178
10 | CGGGGGGC | -0.339
11 | GGGATTGA | -0.172
12 | AAATCTAA | 0.122
13 | AGTTTTGA | 0.0892
14 | CTTCAGAA | -0.0755
15 | CCCTACGC | -0.0571
16 | CCCCACCC | -0.206
17 | GCCTGAAC | -0.15
18 | GGGCCACC | -0.289
19 | GTGTTTCA | 0.177
20 | CTCGGCGA | -0.155
21 | ATGTAACA | 0.454
22 | AAAGGAAA | 0.0903
23 | AGGAAGGC | -0.214
24 | GCTATAAC | 0.101
25 | ACCTTCGG | -0.2

Row | Sequence | PBM E-score
26 | CCATATTC | -0.149
27 | ATCAGCCC | -0.147
28 | CAATGTCC | -0.16
29 | GACATTGC | 0.0989
30 | ATATTTAA | 0.194
31 | CGGTACTC | -0.0118
32 | ATGGTCCC | -0.177
33 | TCACCCGA | -0.0984
34 | AGAGCAAT | -0.168
35 | AAGAGCGG | -0.279
36 | CACCTTTC | -0.12
37 | TCAGACGA | -0.155
38 | AAAAAGAC | 0.0588
39 | AGCTGATA | -0.016
40 | CTAAGTAC | 0.198
41 | CACATCAC | 0.0743
42 | AAGAGGAC | -0.254
43 | GCATAAAC | 0.12
44 | CGGGCCAA | -0.332
45 | CACTAAGA | 0.0645
46 | AACATAGT | 0.297
47 | ATAGCTCA | -0.074
48 | ATCCTGTC | -0.014
49 | ACGTAGCT | 0.209
50 | GCAGCGCC | -0.197

Row | Sequence | PBM E-score
51 | CGGTGTCC | -0.317
52 | ACTTTTTA | 0.219
53 | AAGATAAC | 0.177
54 | TGCCCTAA | -0.287
55 | ATCGTAAA | 0.253
56 | GGCGTGTA | 0.464
57 | CTGGGTGA | -0.194
58 | GCAACGCA | -0.106
59 | AATGGCGC | -0.252
60 | AAGGTGGA | -0.0209
61 | CGGTAAAC | 0.0646
62 | ATGCCAAA | 0.0717
63 | CGATTACA | 0.461
64 | AGACATCG | -0.123
65 | ATCCTGAA | 0.0909
66 | CGACGTAA | 0.266
67 | CGACTCAA | -0.0472
68 | GTCCCCGA | -0.136
69 | ACCGGTAT | -0.11
70 | CACAGCAA | 0.203
71 | ACTGCTAT | -0.178
72 | TAGACTCA | -0.131
73 | ACTCGGTC | 0.0522
74 | GCGCAAGC | 0.026
75 | ACGCTTAA | 0.147

Row | Sequence | PBM E-score
76 | ACACCAGC | -0.128
77 | AACTCGCG | 0.142
78 | ACTAGTCC | -0.0798
79 | GCCTACTA | 0.0415
80 | ATTAGTTG | 0.114
81 | CTAATACC | -0.0459
82 | GGGTAAGA | -0.136
83 | TACCATCA | -0.177
84 | CGCTTTGA | -0.0981
85 | AGGGGACC | -0.179
86 | ATAATAAA | 0.278
87 | AGGACTAG | 0.00427
88 | GATGCACC | -0.125
89 | CGTTTGTC | 0.055
90 | GATTGCCC | -0.187
91 | CTAACCAC | 0.00438
92 | ACTGCTTC | -0.241
93 | AATGTTCA | 0.133
94 | CAAGAAGG | -0.151
95 | GTGGACCA | -0.0852
96 | CACTCTGC | -0.0876
97 | CGGGGGCC | -0.273
98 | GGTCGGTA | -0.0807
99 | AGACTGAT | -0.0844
100 | CGTCAAGC | -0.159

Row | Sequence | PBM E-score
101 | GTCCGTGA | -0.038
102 | GCCATGGA | -0.178
103 | GAGTACGA | -0.00617
104 | TCGGCTCA | -0.194
105 | GCAGTATA | -0.159
106 | CGTCGCGA | -0.0238
107 | AACATGAC | 0.425
108 | ACCTGGCT | -0.212
109 | TATCGGAA | 0.00594
110 | GTGCCCTA | -0.263
111 | GTCGCTTA | 0.0108
112 | CTAGCGAC | 0.0263
113 | AATCCCAG | -0.121
114 | AGTCCATC | -0.116
115 | GTCTTTAA | 0.112
116 | CCGTATAG | -0.131
117 | ATTTTATG | 0.0728
118 | CTACGTGC | 0.0196
119 | AGACATAA | 0.143
120 | GCAGAAGA | -0.114
121 | CCAGTACG | -0.0287
122 | ATCGCGGG | -0.16
123 | AGTCTGAG | -0.307
124 | AGTTAAGG | 0.0151
125 | ACATAGCA | 0.392

Row | Sequence | PBM E-score
126 | ACTGCTCG | -0.0631
127 | CTATTTAA | -0.0611
128 | TAGGAATA | -0.189
129 | AGTCAGGA | -0.143
130 | TCGAGAAA | 0.0758
131 | AGGGAAGC | -0.32
132 | GCGGGGAA | -0.0781
133 | AGAAAAAG | -0.153
134 | CTGCCAAG | -0.0746
135 | CCTTCCCG | -0.275
136 | GAAGGCCC | -0.289
137 | CGGGCCGA | -0.227
138 | TCCTAGCA | -0.0161
139 | CCGAATGC | -0.125
140 | TTCAAGAA | 0.155
141 | GGTTGTAA | 0.342
142 | AACTGGGT | -0.204
143 | ACCTTCCG | -0.0549
144 | AAATGCCC | -0.272
145 | CTATTAGC | 0.0641
146 | ACGATTTG | 0.0768
147 | CGTCTGAA | -0.132
148 | AATTTTAA | 0.185
149 | CTGGCTTA | 0.0278
150 | GGTTCGCA | -0.228

Row | Sequence | PBM E-score
151 | GGTAAAGA | 0.0828
152 | CTGTACCC | -0.12
153 | ATTAAATG | 0.226
154 | ATAGCCAA | -0.0102
155 | GCGGTGCA | -0.281
156 | AATGAGTA | 0.133
157 | CACTGGAG | -0.26
158 | AGGAGCCT | -0.197
159 | ACAGCGTC | 0.205
160 | ATCAGCAG | -0.0801
161 | CGGACGCC | -0.103
162 | GCTTGGGA | -0.206
163 | ACATCCGG | -0.0857
164 | AATGGCCT | -0.191
165 | GGATGGAA | -0.175
166 | ATTTAATC | 0.185
167 | TTCCGAAA | -0.139
168 | CCAAGTTA | 0.156
169 | ATCATAAA | -0.0128
170 | GGGTCCAA | -0.221
171 | CGGACCTA | -0.0259
172 | GGAATAAA | 0.0869
